Results published in article PMC13343975, “A connection between two ancient and essential cellular processes, iron-sulfur protein biogenesis and fatty acid synthesis, in Escherichia coli” (mBio, 2026).
Results are given in words; binding and its absence hold for the method and conditions named. For some of these results: Binding seen in cells or lysates may run through a third protein. Some binding calls cover weakened binding; strength is not graded here. Blank lines part the entries; values can stand above or below the molecule they belong to.

The chains behind the UniProt entries cited, without tags or fusion partners. Where a name states a change or a piece, a line headed by the entry shows the natural chain unless it says otherwise.
UniProt P0A6A8: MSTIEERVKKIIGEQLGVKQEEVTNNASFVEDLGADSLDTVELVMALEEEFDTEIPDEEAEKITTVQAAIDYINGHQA
UniProt P0A6B7: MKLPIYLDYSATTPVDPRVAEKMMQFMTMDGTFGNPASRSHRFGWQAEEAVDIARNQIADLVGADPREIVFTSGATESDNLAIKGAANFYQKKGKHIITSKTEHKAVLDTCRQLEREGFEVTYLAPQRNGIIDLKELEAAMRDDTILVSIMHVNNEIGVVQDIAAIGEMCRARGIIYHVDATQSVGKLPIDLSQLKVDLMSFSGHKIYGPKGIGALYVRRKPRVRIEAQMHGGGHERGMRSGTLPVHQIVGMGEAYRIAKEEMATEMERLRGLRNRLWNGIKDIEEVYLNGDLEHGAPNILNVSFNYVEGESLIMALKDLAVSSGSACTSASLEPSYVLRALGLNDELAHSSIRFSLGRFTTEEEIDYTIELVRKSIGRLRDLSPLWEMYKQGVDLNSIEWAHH

Tests used:
[1] = target: 6His-ACP_(D35N) (E. coli) (UniProt P0A6A8); experiment: native gel or EMSA; 6His-IscS 15 µM with 6His-ACP or variant 30 µM, 20 min at 37°C in 100 mM Hepes, 150 mM NaCl; non-denaturing 12% PAGE, Coomassie Blue; both purified
[2] = target: 6His-ACP_(S36T) (E. coli) (UniProt P0A6A8); experiment: as above
[3] = target: CBP-ACP (E. coli) (UniProt P0A6A8); experiment: pull-down; co-purification on calmodulin beads: soluble extracts of MG1655 making CBP-ACP fusions (0.01% arabinose), 2 h at 4°C in 10 mM Tris-HCl pH 8.0, 150 mM NaCl, 0.1% NP40, 1 mM Mg-acetate, 1 mM imidazole, 2 mM CaCl2; IscS detected by western blot
[4] = target: CBP-ACP_(D35N) (E. coli) (UniProt P0A6A8); experiment: as above
[5] = target: CBP-ACP_(D38N) (E. coli) (UniProt P0A6A8); experiment: as above
[6] = target: CBP-ACP_(E41Q) (E. coli) (UniProt P0A6A8); experiment: as above
[7] = target: CBP-ACP_(S36T) (E. coli) (UniProt P0A6A8); experiment: as above
[8] = target: T25-ACP (E. coli) (UniProt P0A6A8); experiment: two-hybrid; BACTH in E. coli BTH101 with human ISD11 co-expressed with the T18-IscS fusion (pT18-IscS-ISD11); β-galactosidase activity
[9] = target: T25-ACP (E. coli) (UniProt P0A6A8); experiment: two-hybrid; BACTH: T25 and T18 fusions co-transformed in E. coli BTH101; β-galactosidase activity (Fig. 2A) or spots on LB plates with X-gal and IPTG at 30°C (Fig. 2B, C)
[10] = target: T25-ACP_(D35N) (E. coli) (UniProt P0A6A8); experiment: as above
[11] = target: T25-ACP_(D38N) (E. coli) (UniProt P0A6A8); experiment: as above
[12] = target: T25-ACP_(E41Q) (E. coli) (UniProt P0A6A8); experiment: as above
[13] = target: T25-ACP_(S36T) (E. coli) (UniProt P0A6A8); experiment: as above

Molecule: 6His-IscS (from UniProt P0A6B7 1-404) (enzyme)
binding [1]: no binding (tested: 15 µM 6His-IscS with 30 µM ACP variant)
binding [2]: no binding (tested: 15 µM 6His-IscS with 30 µM ACP variant)

Molecule: Endogenous IscS (from UniProt P0A6B7 1-404) (enzyme)
binding [3]: binds
binding [4]: no binding
binding [5]: no binding
binding [6]: binds
binding [7]: no binding

Molecule: T18-IscS (from UniProt P0A6B7 1-404) (enzyme)
binding [8]: no binding (condition: with human ISD11 co-expressed)
binding [9]: binds
binding [10]: no binding
binding [11]: no binding
binding [12]: binds weakly
binding [13]: no binding

B1: T18-SufS (enzyme, UniProt P77444 1-406)
chain: MIFSVDKVRADFPVLSREVNGLPLAYLDSAASAQKPSQVIDAEAEFYRHGYAAVHRGIHTLSAQATEKMENVRKRASLFINARSAEELVFVRGTTEGINLVANSWGNSNVRAGDNIIISQMEHHANIVPWQMLCARVGAELRVIPLNPDGTLQLETLPTLFDEKTRLLAITHVSNVLGTENPLAEMITLAHQHGAKVLVDGAQAVMHHPVDVQALDCDFYVFSGHKLYGPTGIGILYVKEALLQEMPPWEGGGSMIATVSLSEGTTWTKAPWRFEAGTPNTGGIIGLGAALEYVSALGLNNIAEYEQNLMHYALSQLESVPDLTLYGPQNRLGVIAFNLGKHHAYDVGSFLDNYGIAVRTGHHCAMPLMAYYNVPAMCRASLAMYNTHEEVDRLVTGLQRIHRLLG
binding [9]: no binding

Continued, values first:

binding [9]: no binding
Molecule: T18-IscS_(R112E) (from UniProt P0A6B7 1-404) (enzyme)

binding [9]: no binding
Molecule: T18-IscS_(R116E) (from UniProt P0A6B7 1-404) (enzyme)
